Reference: PubChem BioAssay AID504832 (National Center for Advancing Translational Sciences (NCATS), 2011)
In all, about 310,000 compounds went through this assay and about 18,000 (5.8%) were called active. Inconclusive results, whose numbers are uncertain, are shown with a selection of clear calls. Calls follow the shape of the dose curve; as a rule, active = well fitted inhibition curve with a large enough effect; inconclusive = small, poorly fitted or top-dose-only effect, or another doubt; inactive = no such curve, though single readings can be large or run the other way. Potencies of inconclusive entries are left out as doubtful fits. Some compounds were tested as several samples or in several runs, with calls that do not always agree.

Experiment: Primary qHTS for delayed death inhibitors of the malarial parasite plastid, 48 hour incubation
Conditions: P. falciparum luciferase growth in erythrocytes; series mostly up to 28.7 µM; activity change, negative = inhibition: at the top concentration
Summary of the method: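 A one-generation exposure of luciferase-tagged malaria parasites in RPMI 1640/Albumax erythrocyte culture, 37 C and 5% CO2. Inhibition is inferred from decreased luminescence after adding detection reagent.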
% is scaled to controls: 0 for no effect and ±100 for the full control effect; potency is read from the fitted curve at half-maximal effect; tags tell the direction and shape of the fitted curve.

| SMILES | Potency | activity change, negative = inhibition |
| --- | --- | --- |
| CCOC(=O)c1ccc(NC(=O)c2ccc(NS(C)(=O)=O)cc2)cc1 | inconclusive [inhibitor, partial curve, poor fit] |  |
| FC(F)(F)c1cc(-c2ccco2)nc(-n2cnc3ccccc32)n1 |  | inactive: 21.7% |
| CC(C)c1cc(-c2cc(C(=O)NCc3ccccc3)on2)nc(NCC2CC2)n1 | inconclusive [inhibitor, single point] |  |
| Oc1ccc[n+](CCCCC[n+]2cccc(O)c2)c1 |  | inactive: 1.91% |
| CC(=O)N(CC(O)CO)c1c(I)c(C(=O)NCC(O)CO)c(I)c(C(=O)NCC(O)CO)c1I (stereo not drawn) | active: 15.1 µM |  |
| N#Cc1c(=O)c2nc(NCCCO)ncc2n2c(=O)c3ccccc3[nH]c12 | inconclusive [inhibitor, partial curve] |  |
| Cc1ccc(S(=O)(=O)N2CCc3ccccc3C2CN2C(=O)c3ccccc3C2=O)cc1 (stereo not drawn) | inconclusive [inhibitor, partial curve] |  |
| CCN(CC)CCNC(=O)c1cn(CC)c2ccc(S(=O)(=O)N3CCc4ccccc4C3)cc2c1=O | inconclusive [inhibitor, full curve] |  |
| CSCCC(NC(=O)c1ccco1)C(=O)NCC1CCCCC1 (stereo not drawn) | inconclusive [inhibitor, single point] |  |
| NC1=NC[C@H](c2ccccc2)N1CCCCC1CCCCC1 | inconclusive [inhibitor, single point] |  |
| O=C(Nc1nccs1)c1ccc(S(=O)(=O)N2CCOCC2)cc1 |  | inactive: -6.86% |
| CCN(CC)CCN1C(=O)C2C(C(=O)Nc3cccc(C)c3)C3C=CC2(O3)C1C(=O)NC1CCCC(C)C1C (stereo not drawn) | inconclusive [inhibitor, partial curve] |  |
| COC(=O)CCc1c(C)c(C(=O)c2cc(OC)c(OC)c(OC)c2)c2ccccn12 | active: 10.4 µM |  |
| CN(CCCCCCCCCCN(C)C(=O)Oc1cccc([N+](C)(C)C)c1)C(=O)Oc1cccc([N+](C)(C)C)c1 | active: 0.117 µM |  |
| CNc1ccccc(C(=O)/C=C/c2ccccc2OC)c1=O | inconclusive [inhibitor, single point] |  |
| C=C(C)C1Cc2c(C)nn(-c3cccc4cccnc34)c2C1 (stereo not drawn) | inconclusive [inhibitor, partial curve, poor fit] |  |
| COc1cc(NC(=O)CN2C(=O)c3ccccc3S2(=O)=O)cc(OC)c1 |  | inactive: 8.89% |
| COc1ccc(NC(=O)CSc2nnc(Cc3ccc(C)cc3)c(=O)n2N)cc1OC |  | inactive: -1.55% |
| CC(=O)Nc1ccc(NC(=O)COC(=O)c2c(C)nn(-c3ccccc3)c2C)cc1 |  | inactive: -24.3% |
| CCCOc1ccc(N2CC(C(=O)Nc3ccccn3)CC2=O)cc1 (stereo not drawn) | inconclusive [inhibitor, full curve, poor fit] |  |
| CC(C)(C)c1ccc(OCc2ccc(C(=O)N/N=C/c3ccc([N+](=O)[O-])cc3)o2)cc1 | inconclusive [inhibitor, single point] |  |
| COc1ccc(-n2nc([N+](=O)[O-])c(=NCCc3ccc(OC)c(OC)c3)n2O)cc1 |  | inactive: 6.38% |
| COc1ccc2sc(N(CCCN(C)C)C(=O)c3ccc(S(=O)(=O)N4CCCc5ccccc54)cc3)nc2c1 | active: 7.38 µM |  |

| SMILES | Potency | activity change, negative = inhibition |
| --- | --- | --- |
| CCCOC(=O)c1ccc(Oc2cn[nH]c2-c2ccc(OC)cc2O)cc1 | active: 10.4 µM |  |
| CCN(CC(=O)NC1CCCCCC1)S(=O)(=O)c1ccccc1 |  | inactive: -9.26% |
| Cc1cccc(NC(=S)NN2CCN(C)CC2)c1 |  | inactive: 16.7% |
| COC(=O)C1CCN(CCCOc2ccc(CN3CCN(c4ccc([N+](=O)[O-])cc4)CC3)cc2)CC1 | inconclusive [inhibitor, partial curve, poor fit] |  |
| O=C(NCCSc1ccccc1)c1ccc(CN2CCOCC2)cc1 |  | inactive: 131% |
| O=C1CC(c2cccc(Br)c2)c2cc3c(cc2N1)CCC3 (stereo not drawn) | inconclusive [inhibitor, single point] |  |
| COc1ccc2c(CC(=O)Nc3ccc(N4CCOCC4)cc3)coc2c1 | inconclusive [inhibitor, single point] |  |
| COc1cccc(CN2CCN(c3nc4nonc4nc3N3CCCCC3)CC2=O)c1 | inconclusive [inhibitor, partial curve, poor fit] |  |
| CCC1(OC(=O)CN)C(=O)OCc2c1cc1n(c2=O)Cc2cc3ccccc3nc2-1 (stereo not drawn) | active: 1.65 µM |  |
| COc1ccc(N=C(N(C)C)P(=O)(N(C)C)N(C)C)cc1 | inconclusive [inhibitor, full curve, poor fit] |  |
| Cc1cc(Cl)ccc1NC(=O)CCN1C(=O)NC(C)(C)C1=O | inconclusive [inhibitor, single point] |  |
| C/C(CCc1ccccc1)=N\NC(=S)NCCc1ccccc1 | inconclusive [inhibitor, partial curve] |  |
| CC1C(=O)N2CCCc3cc(S(=O)(=O)N4CCCCC4)cc1c32 (stereo not drawn) | inconclusive [inhibitor, single point] |  |
| COc1cccc(C(c2c(NC(=O)c3ccccc3)sc(C)c2C)N2CCN(C)CC2)c1 (stereo not drawn) | active: 11.7 µM |  |
| CCOC(=O)CCn1c(=S)n(CCC(=O)OCC)c2ccccc21 | active: 3.7 µM |  |
| CCCC(=O)NC(c1ccc(OC)c(OC)c1)c1c(O)ccc2ccccc12 (stereo not drawn) | inconclusive [inhibitor, partial curve] |  |
| COc1ccccc1Nc1nc2ccccc2[nH]1 | inconclusive [inhibitor, single point] |  |
| CN(C)CCCNC(=S)Nc1ccc(Br)cc1 |  | inactive: -11.3% |
| Cc1ccc(Nc2ccc(-n3ccnc3)nn2)cc1C | inconclusive [inhibitor, partial curve, poor fit] |  |
| CCS(=O)(=O)Nc1cccc(-c2ccc3nnc(-c4cccnc4)n3n2)c1 | inconclusive [inhibitor, single point] |  |
| N#C/C(=C\c1ccc(-c2cccc([N+](=O)[O-])c2)o1)C(=O)Nc1nc(-c2cccs2)cs1 | inconclusive [inhibitor, full curve, poor fit] |  |
| O=C(Nc1ccc(Cl)cc1)c1cc2c(cc1O)[nH]c1ccccc12 | active: 10.4 µM |  |
| O=C(CN1CCN(c2ncccn2)CC1)N1CCc2ccccc21 |  | inactive: 20.1% |

| SMILES | Potency | activity change, negative = inhibition |
| --- | --- | --- |
| COc1ccc(/C=N/NC(=S)Nc2ccccc2)cc1 | inconclusive [inhibitor, single point] |  |
| CC1CC(C)CN(C(=O)c2ccccc2Nc2ccc(SC(F)F)cc2)C1 (stereo not drawn) | inconclusive [inhibitor, partial curve] |  |
| C#CCOCCOCCOCCNc1nc(N2CCN(C(=O)[C@H]([C@@H](C)CC)n3cc([C@@H](N)CC(C)C)nn3)CC2)nc(N2CCN(C(=O)[C@H](Cc3cc4ccccc4[nH]3)n3cc([C@@H](N)C(C)CC)nn3)CC2)n1 (stereo partly drawn) | active: 4.65 µM |  |
| COc1cc(C2NC(=S)NC(C)=C2C(=O)OC(C)C)ccc1OC(C)C (stereo not drawn) | inconclusive [inhibitor, single point] |  |
| CCC1CCCCN1C(=O)COc1ccc(S(=O)(=O)N2CCOCC2)cc1Cl (stereo not drawn) | inconclusive [inhibitor, partial curve, poor fit] |  |
| Cc1ccc(Cn2ccc(=O)c(Cc3c(Cl)cccc3Cl)c2C)cc1 | inconclusive [inhibitor, single point] |  |
| CCn1nc(C(=O)NNC(=O)C2CSC3(C)CCC(=O)N23)c2ccccc2c1=O (stereo not drawn) | inconclusive [inhibitor, partial curve, poor fit] |  |
| Cc1ccc(C)c(NC(=O)Cn2nnc(C(=O)Nc3c(C)cccc3C)c2N)c1 | inconclusive [inhibitor, partial curve, poor fit] |  |
| CCOC(=O)C1=C(C)N=C(SC)N(C)C1c1ccccc1 (stereo not drawn) | inconclusive [inhibitor, single point] |  |
| CCOc1ccc(OCc2cccc(C(=O)N3CCCCCC3)c2)cc1 |  | inactive: 302% |
| O=C(CN1CCC(NC(=O)c2ccc(F)cc2)CC1)NCc1ccccc1F |  | inactive: -11.6% |
| COc1ccc(Cn2c(=O)[nH]c3cc(C(=O)NCCCN4CCCC4=O)ccc3c2=O)cc1 | inconclusive [inhibitor, partial curve, poor fit] |  |
| CSCSC1=C(C#N)C(c2ccc(Cl)cc2)C(C(C)=O)=C(C)N1 (stereo not drawn) | inconclusive [inhibitor, single point] |  |
| COc1ccc(C2/C=C\CN(Cc3ccc(N(C)C)cc3)CC(=O)N2Cc2ccc(F)cc2)cc1 (stereo not drawn) | inconclusive [inhibitor, single point] |  |
| COc1ccc(/C=C2\SC(N)=NC2=O)cc1Br |  | inactive: -7.96% |
| CSCCC(NS(=O)(=O)c1ccccc1F)C(=O)Nc1cccc(C)n1 (stereo not drawn) | inconclusive [inhibitor, partial curve] |  |
| NS(=O)(=O)c1ccc(CCNC(=O)Cc2ccc(Cl)cc2)cc1 |  | inactive: -2.72% |
| O=S(=O)(Nc1cc(Sc2cccc3cccnc23)c(O)c2ccccc12)c1ccc(F)cc1 | active: 2.62 µM |  |
| CN(C(=S)Oc1ccc(C(=O)Nc2ccccc2)cc1)c1ccccc1 | inconclusive [inhibitor, single point] |  |
| COc1ccc(-c2nc(N)nc(C)c2Oc2ccccc2Br)c(O)c1 | inconclusive [inhibitor, single point] |  |
| O=C(/C=C/Nc1ccccc1)c1ccc(Oc2ncccn2)cc1 |  | inactive: 220% |
| COc1ccccc1NC(=O)CC1C(=O)NCCN1C(=O)Nc1ccc(Cl)c(Cl)c1 (stereo not drawn) | inconclusive [inhibitor, single point] |  |
